Results taken from patent US12466849B2, “Anti-viral and anti-tumoral compounds” (YEDA RESEARCH AND DEVELOPMENT CO. LTD, priority 2020, dated 2025).

Columns and labels:
[1] = biological target: mitochondrial RNA polymerase (POLRMT) (Homo sapiens, UniProt O00411)
PrimPol = biological target: T1, PrimPol (Homo sapiens, UniProt Q96LW4)
T1 sequence (Q96LW4 2-559): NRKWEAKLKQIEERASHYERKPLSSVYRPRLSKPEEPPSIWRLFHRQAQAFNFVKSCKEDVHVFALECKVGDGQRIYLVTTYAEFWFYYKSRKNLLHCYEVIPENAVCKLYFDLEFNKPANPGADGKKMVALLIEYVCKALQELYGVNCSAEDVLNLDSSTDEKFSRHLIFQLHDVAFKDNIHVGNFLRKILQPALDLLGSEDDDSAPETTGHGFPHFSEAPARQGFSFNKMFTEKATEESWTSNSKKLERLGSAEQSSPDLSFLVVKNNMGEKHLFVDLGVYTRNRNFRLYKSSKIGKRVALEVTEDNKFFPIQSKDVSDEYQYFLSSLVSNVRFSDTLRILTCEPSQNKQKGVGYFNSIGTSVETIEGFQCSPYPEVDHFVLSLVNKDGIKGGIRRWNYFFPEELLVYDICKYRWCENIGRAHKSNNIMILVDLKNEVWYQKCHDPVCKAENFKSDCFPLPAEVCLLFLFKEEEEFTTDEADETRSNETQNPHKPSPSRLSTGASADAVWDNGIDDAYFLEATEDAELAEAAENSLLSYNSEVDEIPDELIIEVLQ

Chain of mitochondrial RNA polymerase (POLRMT) (O00411 142-1230): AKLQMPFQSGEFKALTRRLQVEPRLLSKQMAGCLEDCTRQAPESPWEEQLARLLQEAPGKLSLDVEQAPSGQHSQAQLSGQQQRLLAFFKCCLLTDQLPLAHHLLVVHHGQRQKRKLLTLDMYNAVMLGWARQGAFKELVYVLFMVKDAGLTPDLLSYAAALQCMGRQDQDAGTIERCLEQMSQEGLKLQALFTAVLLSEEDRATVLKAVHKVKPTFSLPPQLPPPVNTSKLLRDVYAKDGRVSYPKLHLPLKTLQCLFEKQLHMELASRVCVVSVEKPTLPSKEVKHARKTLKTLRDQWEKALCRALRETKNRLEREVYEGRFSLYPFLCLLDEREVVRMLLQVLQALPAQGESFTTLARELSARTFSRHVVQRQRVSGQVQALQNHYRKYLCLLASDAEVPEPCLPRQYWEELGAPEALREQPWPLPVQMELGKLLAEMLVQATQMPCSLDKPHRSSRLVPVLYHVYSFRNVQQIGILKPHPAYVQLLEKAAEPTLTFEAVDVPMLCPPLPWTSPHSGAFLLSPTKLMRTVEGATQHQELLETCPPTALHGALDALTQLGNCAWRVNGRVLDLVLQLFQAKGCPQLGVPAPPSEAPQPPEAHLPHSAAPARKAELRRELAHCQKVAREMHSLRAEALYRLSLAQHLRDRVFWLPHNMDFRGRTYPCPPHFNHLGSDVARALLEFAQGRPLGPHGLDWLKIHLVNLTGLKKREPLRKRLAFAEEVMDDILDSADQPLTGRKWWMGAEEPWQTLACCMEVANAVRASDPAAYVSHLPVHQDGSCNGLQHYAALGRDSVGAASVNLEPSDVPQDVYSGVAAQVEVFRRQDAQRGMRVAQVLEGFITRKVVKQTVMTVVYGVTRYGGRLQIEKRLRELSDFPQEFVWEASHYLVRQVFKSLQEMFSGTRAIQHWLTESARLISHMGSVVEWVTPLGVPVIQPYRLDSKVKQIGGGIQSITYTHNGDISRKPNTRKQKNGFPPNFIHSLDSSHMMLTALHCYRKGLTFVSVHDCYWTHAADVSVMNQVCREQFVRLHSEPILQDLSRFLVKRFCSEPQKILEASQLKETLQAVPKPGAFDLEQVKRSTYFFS

SMILES | substrate for POLRMT (in words) [1] | substrate for PrimPol (in words) (PrimPol)
N#C[C@@]1(c2ccc3c(N)ncnn23)OC(COP(=O)(O)OP(=O)(O)OP(=O)(O)O)=C[C@H]1O [ddhREM-TP, ddhRemdesivir] | poor substrates | poor substrates
O=c1ccn(C2OC(COP(=O)(O)OP(=O)(O)OP(=O)(O)O)=CC2O)c(=O)[nH]1 (stereo not shown) [ddhUTP, 3′-deoxy-3,4-didehydro-UTP] | poor substrates | poor substrates
